According to patent US20250059278A1 (SICHUAN HUIYU PHARMACEUTICAL, published 2025):

How the values were obtained:
[1] = molecular target: T1, Human CD3 on Jurkat cells (human, UniProt P07766; P09693; P04234); test: flow cytometry on Jurkat cells
T1 construct: whole, on cells; also called Human CD3-expressing Jurkat cells; Jurkat (naturally expressing human CD3)

[2] = molecular target: T2, human MSLN recombinant antigen (acrobiosystems, Cat. No. MSN-H8223) (human, UniProt Q13421 296-580); test: SPR chip (Carterra), antibody captured, MSLN in flow
T2 construct: Bought protein

[3] = molecular target: T3, Monkey CD3 on cynomolgus HSC-F cells (cynomolgus monkey, UniProt Q95LI5 22-198; Q95LI7 23-181; Q95LI8 22-171); test: flow cytometry on HSC-F cells
T3 construct: whole, on cells; also called Monkey CD3-expressing cynomolgus HSC-F cells; cynomolgus monkey CD3-expressing HSC-F cells

[4] = molecular target: T4, Human CD3εγ recombinant antigen (acrobiosystems, Cat. No. CDG-H52W5) (human, UniProt P07766 23-126; P09693 23-116); test: SPR chip (Carterra), antibody captured, antigen in flow
T4 construct: Bought recombinant protein

[5] = molecular target: T1, Human CD3 on Jurkat cells; test: cell-based or functional assay
T1 sequence (P07766 23-207, chain 1 of 3): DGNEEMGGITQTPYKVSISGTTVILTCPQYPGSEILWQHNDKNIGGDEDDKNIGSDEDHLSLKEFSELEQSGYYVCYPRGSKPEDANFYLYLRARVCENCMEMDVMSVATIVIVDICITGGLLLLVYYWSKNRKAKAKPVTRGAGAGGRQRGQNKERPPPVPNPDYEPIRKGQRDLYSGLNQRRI
T1 sequence (P09693 23-182, chain 2 of 3, further chain): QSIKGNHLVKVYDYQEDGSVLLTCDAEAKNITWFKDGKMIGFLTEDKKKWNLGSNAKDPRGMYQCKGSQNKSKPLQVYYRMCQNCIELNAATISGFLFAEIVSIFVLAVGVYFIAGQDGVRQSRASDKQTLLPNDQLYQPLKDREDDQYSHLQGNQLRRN
T1 sequence (P04234 22-171, chain 3 of 3, further chain): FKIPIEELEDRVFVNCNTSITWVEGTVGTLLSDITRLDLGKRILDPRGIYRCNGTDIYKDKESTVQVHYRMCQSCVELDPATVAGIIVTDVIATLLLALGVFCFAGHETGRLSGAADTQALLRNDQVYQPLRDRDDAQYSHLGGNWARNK

T2 sequence (Q13421 other isoform, or with tags, fused parts or gaps limits assumed): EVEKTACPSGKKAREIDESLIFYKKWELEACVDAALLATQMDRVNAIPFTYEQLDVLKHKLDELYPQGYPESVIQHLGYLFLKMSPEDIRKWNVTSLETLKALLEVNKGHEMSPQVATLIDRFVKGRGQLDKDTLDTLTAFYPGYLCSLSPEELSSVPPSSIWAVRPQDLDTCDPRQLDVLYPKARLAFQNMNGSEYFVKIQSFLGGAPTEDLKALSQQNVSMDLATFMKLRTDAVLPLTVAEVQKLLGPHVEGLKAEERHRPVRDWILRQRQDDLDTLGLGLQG
T3 sequence (Q95LI5 22-198, chain 1 of 3): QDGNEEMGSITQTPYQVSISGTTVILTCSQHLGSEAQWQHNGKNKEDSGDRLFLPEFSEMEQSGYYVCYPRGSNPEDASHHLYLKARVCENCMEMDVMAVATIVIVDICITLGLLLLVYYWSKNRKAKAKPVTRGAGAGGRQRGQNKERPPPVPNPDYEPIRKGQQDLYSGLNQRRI
T3 sequence (Q95LI7 23-181, chain 2 of 3, further chain): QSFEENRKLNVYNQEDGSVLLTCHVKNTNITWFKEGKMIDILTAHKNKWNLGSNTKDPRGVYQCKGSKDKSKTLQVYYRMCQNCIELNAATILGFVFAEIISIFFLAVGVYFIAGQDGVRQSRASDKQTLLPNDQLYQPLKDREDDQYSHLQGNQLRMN
T3 sequence (Q95LI8 22-171, chain 3 of 3, further chain): as the sequence (P04234 22-171, chain 3 of 3, further chain) above, with I5V, N15K, I20V, S32T, D33N, I34N, T64A, S74N, V83L, H141R counted along it

EC50 [1]	Kd [2]	koff [2]	kon [2]	EC50 [3]	Kd [4]	koff [4]	kon [4]	EC50 (nM), activation of Jurkat-TIGIT-luc cells with MC38/MSLN tumor cells [5]	EC50 (nM), activation of T cell activation signaling pathway, Jurkat-TIGIT-luc cells without tumor cells [5]	Binder
0.568 nM	0.7 nM	0.00077 s⁻¹	1.1e+06 M⁻¹ s⁻¹	0.209 nM	2 nM	0.0042 s⁻¹	2.1e+06 M⁻¹ s⁻¹			CD3-MSLN bispecific antibody B1 (bispecific antibody, human IgG1, lambda, [VH1]-[CH]-[L]-[3C6 VHH] with [VL-1]-[CL]) heavy: EVQLVESGGGLVQPGGSLRLSCAASGFTFNTYAMNWVRQAPGKGLEWVARIRSKYNNYATYYADSVKGRFTISRDDSKSILYLQMNNLKTEDTAMYYCVRHANFLNSYVSWFAYWGQGTLVTVSSASTKGPSVFPLAPSSKSTSGGTAALGCLVKDYFPEPVTVSWNSGALTSGVHTFPAVLQSSGLYSLSSVVTVPSSSLGTQTYICNVNHKPSNTKVDKKV[letters of human IgG1 Fc with changes omitted]GGGGSGGGGSEVQLVESGGGLVQAGESLRLSCAVSGNIGSIRHMGWHRQDPGKERELVATITTVGTTYYANFVKGRFTISRDNAKNTVYLQMNSLKPEDTGVYYCRATAHPTDYWGQGTQVTVSS light: [letters of about 100 residues omitted][letters of about 100 residues omitted]
9.8 nM				0.401 nM	15 nM	0.0017 s⁻¹	110000 M⁻¹ s⁻¹	0.006 nM	0.52 nM	CD3-MSLN bispecific antibody B43 (bispecific antibody, human IgG1, lambda, [VH43]-[CH]-[L]-[3C6 VHH] with [VL-1]-[CL]) heavy: EVQLVESGGGLVQPGGSLRLSCAASGFTFNTYAMNWVRQAPGKGLEWVARIRSKYNNYATYYADSVKDRFTISRDDSKSILYLQMNSLKTEDTAMYYCVRPGNFPNSYVSWFALWGQGTLVTVSSASTKGPSVFPLAPSSKSTSGGTAALGCLVKDYFPEPVTVSWNSGALTSGVHTFPAVLQSSGLYSLSSVVTVPSSSLGTQTYICNVNHKPSNTKVDKKV[letters of human IgG1 Fc with changes omitted]GGGGSGGGGSEVQLVESGGGLVQAGESLRLSCAVSGNIGSIRHMGWHRQDPGKERELVATITTVGTTYYANFVKGRFTISRDNAKNTVYLQMNSLKPEDTGVYYCRATAHPTDYWGQGTQVTVSS light: [letters of about 100 residues omitted][letters of about 100 residues omitted]
2.23 nM				0.262 nM	21 nM	0.0029 s⁻¹	140000 M⁻¹ s⁻¹	0.007 nM	0.91 nM	CD3-MSLN bispecific antibody B22 (bispecific antibody, human IgG1, lambda, [VH22]-[CH]-[L]-[3C6 VHH] with [VL-1]-[CL]) heavy: EVQLVESGGGLVQPGGSLRLSCAASGFTFNTYAMNWVRQAPGKGLEWVARIRSKYNNYATYYADSVKGRFTISRDDSKSILYLQMNSLKTEDTAMYYCVRHERFGNSYVSWFAYWGQGTLVTVSSASTKGPSVFPLAPSSKSTSGGTAALGCLVKDYFPEPVTVSWNSGALTSGVHTFPAVLQSSGLYSLSSVVTVPSSSLGTQTYICNVNHKPSNTKVDKKV[letters of human IgG1 Fc with changes omitted]GGGGSGGGGSEVQLVESGGGLVQAGESLRLSCAVSGNIGSIRHMGWHRQDPGKERELVATITTVGTTYYANFVKGRFTISRDNAKNTVYLQMNSLKPEDTGVYYCRATAHPTDYWGQGTQVTVSS light: [letters of about 100 residues omitted][letters of about 100 residues omitted]
0.226 nM				0.216 nM	5.5 nM	0.0046 s⁻¹	830000 M⁻¹ s⁻¹	0.037 nM		CD3-MSLN bispecific antibody B37 (bispecific antibody, human IgG1, lambda, [VH37]-[CH]-[L]-[3C6 VHH] with [VL-1]-[CL]) heavy: EVQLVESGGGLVQPGGSLRLSCAASGFTFNTYAMNWVRQAPGKGLEWVARIRSKYNNYATYYADSVKDRFTISRDDSKSILYLQMNNLKTEDTAMYYCVRHANFSNSYVSWFAYWGQGTLVTVSSASTKGPSVFPLAPSSKSTSGGTAALGCLVKDYFPEPVTVSWNSGALTSGVHTFPAVLQSSGLYSLSSVVTVPSSSLGTQTYICNVNHKPSNTKVDKKV[letters of human IgG1 Fc with changes omitted]GGGGSGGGGSEVQLVESGGGLVQAGESLRLSCAVSGNIGSIRHMGWHRQDPGKERELVATITTVGTTYYANFVKGRFTISRDNAKNTVYLQMNSLKPEDTGVYYCRATAHPTDYWGQGTQVTVSS light: [letters of about 100 residues omitted][letters of about 100 residues omitted]
4.46 nM				1.85 nM	23 nM	0.0064 s⁻¹	280000 M⁻¹ s⁻¹	0.026 nM	0.88 nM	CD3-MSLN bispecific antibody B33 (bispecific antibody, human IgG1, lambda, [VH33]-[CH]-[L]-[3C6 VHH] with [VL-1]-[CL]) heavy: EVQLVESGGGLVQPGGSLRLSCAASGFTFNTYAMNWVRQAPGKGLEWVARIRSKYNNYATYYADSVKGRFTISRDDSKSSLYLQMNSLKTEDTAVYYCVRHGNFGNNYVSWFASWGQGTLVTVSSASTKGPSVFPLAPSSKSTSGGTAALGCLVKDYFPEPVTVSWNSGALTSGVHTFPAVLQSSGLYSLSSVVTVPSSSLGTQTYICNVNHKPSNTKVDKKV[letters of human IgG1 Fc with changes omitted]GGGGSGGGGSEVQLVESGGGLVQAGESLRLSCAVSGNIGSIRHMGWHRQDPGKERELVATITTVGTTYYANFVKGRFTISRDNAKNTVYLQMNSLKPEDTGVYYCRATAHPTDYWGQGTQVTVSS light: [letters of about 100 residues omitted][letters of about 100 residues omitted]
